# Reference: PMC4336329 (PLoS ONE, 2015)
# Out of some 310,000 compounds screened, about 2,200 (0.71%) showed an effect of 50% or more. Effects have a minus sign here. The list shows a part of the results.
# Biological target: human ether-à-go-go-related gene (hERG) potassium channel (human, UniProt Q12809)
# Test: primary screen, population patch clamp on CHO cells stably expressing hERG
# human ether-à-go-go-related gene (hERG) potassium channel, sequence (Q12809 whole entry, looked up): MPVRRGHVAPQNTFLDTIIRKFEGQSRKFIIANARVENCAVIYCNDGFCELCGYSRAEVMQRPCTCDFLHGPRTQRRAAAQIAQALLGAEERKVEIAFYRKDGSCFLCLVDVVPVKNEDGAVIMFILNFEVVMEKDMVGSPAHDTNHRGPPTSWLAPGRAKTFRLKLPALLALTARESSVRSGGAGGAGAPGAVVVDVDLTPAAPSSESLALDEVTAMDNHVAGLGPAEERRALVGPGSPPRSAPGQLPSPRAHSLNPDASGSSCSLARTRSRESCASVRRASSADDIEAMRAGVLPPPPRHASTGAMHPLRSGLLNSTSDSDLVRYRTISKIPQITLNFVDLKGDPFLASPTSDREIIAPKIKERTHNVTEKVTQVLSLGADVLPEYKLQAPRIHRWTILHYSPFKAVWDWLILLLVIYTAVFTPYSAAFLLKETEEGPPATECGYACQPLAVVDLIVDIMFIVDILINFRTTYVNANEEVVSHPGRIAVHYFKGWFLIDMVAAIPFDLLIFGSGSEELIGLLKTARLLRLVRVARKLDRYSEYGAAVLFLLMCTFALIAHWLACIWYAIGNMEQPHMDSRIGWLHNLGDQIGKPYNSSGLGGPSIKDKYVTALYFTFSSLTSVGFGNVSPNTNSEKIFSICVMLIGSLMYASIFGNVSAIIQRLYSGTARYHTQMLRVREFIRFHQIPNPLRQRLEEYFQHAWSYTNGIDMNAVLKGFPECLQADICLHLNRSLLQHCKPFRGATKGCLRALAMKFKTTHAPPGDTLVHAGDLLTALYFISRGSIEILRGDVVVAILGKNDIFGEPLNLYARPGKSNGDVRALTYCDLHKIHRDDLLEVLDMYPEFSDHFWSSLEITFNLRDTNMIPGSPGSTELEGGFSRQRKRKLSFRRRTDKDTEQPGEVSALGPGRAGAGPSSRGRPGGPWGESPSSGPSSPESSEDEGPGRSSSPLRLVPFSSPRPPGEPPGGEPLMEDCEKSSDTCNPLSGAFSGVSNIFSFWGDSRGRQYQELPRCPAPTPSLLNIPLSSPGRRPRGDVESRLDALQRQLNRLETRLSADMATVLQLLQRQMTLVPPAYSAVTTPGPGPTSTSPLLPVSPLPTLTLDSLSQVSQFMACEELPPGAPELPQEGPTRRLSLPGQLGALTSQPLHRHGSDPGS
row,SMILES,"hERG current change (%, negative = inhibition) at 1uM [%]"
1,COc1ccc(-c2cn(CCO)nc2-c2ccc(OC)cc2)cc1,7.36
2,O=C(NNS(=O)(=O)c1ccc(Br)cc1)c1cccs1,9.77
3,COc1cc2[nH]c(C(=O)N3CCC4(CC3)OCCO4)cc2c(OC)c1OC,9.77
4,CCc1cccc2c(C#N)cn(CC(=O)NCCOC)c12,5.64
5,O=C(Nc1c[nH]c(=O)[nH]c1=O)c1ccccc1Cl,16.5
6,Cc1cc(C)cc(OCC(=O)OCC(=O)Nc2cc(S(=O)(=O)N3CCOCC3)ccc2C)c1,8.4
7,N#CC1(NC(=O)COC(=O)c2nccnc2N)CCCCC1,-1.63
8,O=C(O)c1ccccc1/C=N/Nc1ccc(S(=O)(=O)N2CCCC2)cc1[N+](=O)[O-],11.9
9,CC(C)(C)NC(=O)NC(=O)CN1CCCCC1,13.5
10,O=C(N/N=C/c1cccnc1)c1cc(-c2ccccc2OCc2ccccc2)n[nH]1,1.5
11,COc1ccc(/C=N/n2cnc3c([nH]c4ccc(F)cc43)c2=O)cc1CN1CCCC1,-12.4
12,COc1ccc(C)cc1NC(=O)COC(C)=O,3.78
13,CCCc1c(C)nc(N2CCN(c3ccc(F)cc3)CC2)[nH]c1=O,8.77
14,O=C(CNC(=O)c1ccc(Cl)cc1)OCCCOC(=O)CNC(=O)c1ccc(Cl)cc1,6.89
15,NC(=O)C1CCCN(C(=O)c2cccc(S(=O)(=O)N(Cc3ccccc3)c3ccccc3)c2)C1 (centres unmarked),-3.93
16,O=[N+]([O-])c1cccc(NN=Nc2ccccc2)c1,14.2
17,C=CCOc1ccc(/C=N/NC(=O)C(C)Sc2ccccn2)cc1OCC (centres unmarked),-6.14
18,CCOC(=O)Nc1ccc2c(CN3C(=O)NC(CC)(CC)C3=O)cc(=O)oc2c1,-1.2
19,Cc1ccc(-c2nc(CS(=O)(=O)CC(=O)NCCN3CCCC3)c(C)o2)cc1,7.76

row,SMILES,"hERG current change (%, negative = inhibition) at 1uM [%]"
1,COc1cc(C2Nc3cc(C)c(C)cc3NC3=C2C(=O)CC(C)(C)C3)ccc1OC(C)=O (centres unmarked),13.6
2,C=CCn1c2ccccc2c(=O)c2cc(C#Cc3ccsc3)ccc21,4.34
3,CCCN1CCN(C(=O)c2ccc(F)c(S(=O)(=O)N3CCOCC3)c2)CC1.Cl,9.97
4,O=C(Nc1ccc(S(=O)(=O)Nc2nccs2)cc1)C1CCCCC1,-4.32
5,COc1ccc(CNC(=O)c2cc3cccc(OC)c3oc2=N)cc1,11.6
6,COc1ccc(N2CC2c2ccncc2)cc1 (centres unmarked),25.2
7,Cc1ccc(S(=O)(=O)N(C)Cc2ccc(C(=O)N/N=C3\CC(=O)CC(C)(C)C3)cc2)cc1,-1.36
8,COc1ccc(OC)c(CCNC(=O)CC2Oc3ccccc3NC2=O)c1 (centres unmarked),-2.47
9,COC(=O)c1cc(=O)n(Cc2ccc(OC)c(OC)c2)c(=Nc2ccc(F)cc2)s1,10
10,Cc1nn(CSc2c(F)c(F)c(F)c(F)c2F)c(C)c1[N+](=O)[O-],11.2
11,COc1cccc(CNC(=O)C2CCN(S(=O)(=O)c3cnc[nH]3)CC2)c1,9.74
12,COc1cc([N+](=O)[O-])ccc1NC(=O)Nc1ccc(C(=O)N2CCCC2)cc1,-8.5
13,Cc1ccc(C)n1-c1nn(S(=O)(=O)c2cccc3cccnc23)c2cccc(F)c12,15
14,OCCN(CC#CCn1c2ccccc2c2ccccc21)CCO,11.4
15,NC(=O)c1ccc(N2CCCCC2)c(N2C(=O)CCC2=O)c1,-11.5
16,COc1ccc(-c2noc(CCCC(=O)NC3CCCCC3)n2)cc1OC,19.7
17,CSc1n[nH]c(NC2=CC(=O)CCC2)n1,15
18,O=C1c2cccnc2C(=O)N1Cc1ccc(S(=O)(=O)N2CCOc3ccc(Cl)cc32)cc1,17.4
19,O=C(c1ccccc1F)N1CCN=C1c1ccccc1,9.15

row,SMILES,"hERG current change (%, negative = inhibition) at 1uM [%]"
1,COc1ccc(Nc2n[nH]c(C)c2[N+](=O)[O-])cc1,14.7
2,CCP(=O)(CC)c1cccc(N)c1,2.05
3,Cc1cc(Cl)c(S(=O)(=O)NCCC(=O)O)cc1OCC(N)=O,10.5
4,CCOC(=O)c1cccc(NC(=O)CNC(=O)C2CCCCC2)c1,7.91
5,COc1ccc(-n2nnnc2SCC(=O)NC2CC2)cc1,9.5
6,O=C(NC1=NCCS1)c1sc2cc(F)ccc2c1Cl,18.9
7,CCn1cc([N+](=O)[O-])c(C(=O)N2N=C(c3ccc4ccccc4c3)CC2c2cc(Br)ccc2O)n1 (centres unmarked),11.1
8,NC1=NC[C@H](Cc2ccc(O)cc2)N1CC1CCCCC1,13.1
9,O=C(C[n+]1ccccc1)N/N=C/c1cc(Br)ccc1O.[Cl-],12.4
10,CC1(C)CC(=O)C(Sc2nnc(-c3ccc(O)cc3)n2CC2CCCO2)C(=O)C1 (centres unmarked),19.4
11,C(=N\NC1=NCCN1)/c1ccncc1.Cl,8.57
12,CN(C(=S)NC(=O)Cc1ccccc1)c1ccccc1,8.53
13,CC(C)(C)C1(c2ccccc2)NC(=O)N(CC(=O)N2CCOCC2)C1=O (centres unmarked),-6
14,COc1ccc(CC[NH+](C)CCCN2CC(c3ccccc3)CC2=O)cc1OC.O=C([O-])C(=O)[O-] (centres unmarked),-61.9
15,COC(=O)c1ccc(CN2[C@H](C(=O)OC)C[C@@]3(O)[C@H](O)[C@H](O)[C@H](O)C[C@@H]23)cc1,-10.5
16,Cl.O=C(c1ccco1)N1CCN(C/C=C/c2ccccc2)CC1,-3.18
17,CN1CCN(C2=C(Cl)C(=O)N(C3CCCCC3)C2=O)CC1,-5.33
18,O=C(c1ccco1)N1CCC(c2nc3ccccc3[nH]2)CC1,1.48
